Here are results for 31 molecules from PMC9911399, “Two distinct binding modes provide the RNA-binding protein RbFox with extraordinary sequence specificity”.

Residue numbers refer to the chain shown, from its start. The list shows a part of the results.

First the molecules themselves.
B1: CUCAUCG (DNA:RNA)
RNA: GGGAGACCGGAAUUCAGAUUGUCCCUCAUCGUUAAAUCCCGUCGUAGCCACCA
DNA 1: CAATCTGAATTCCGGTCTCCC
DNA 2: TGGTGGCTACGACGGGATT
B2: UGAGGCU (DNA:RNA)
RNA: B1 RNA with C25U, U26G, C27A, A28G, U29G, G31U
DNA 1: CAATCTGAATTCCGGTCTCCC
DNA 2: TGGTGGCTACGACGGGATT
B3: CUCGGGU (DNA:RNA)
RNA: B1 RNA with A28G, U29G, C30G, G31U
DNA 1: CAATCTGAATTCCGGTCTCCC
DNA 2: TGGTGGCTACGACGGGATT
B4: GAUGAUC (DNA:RNA)
RNA: GGGAGACCGGAAUUCAGAUUGUCCGAUGAUCUUAAAUCCCGUCGUAGCCACCA
DNA 1: CAATCTGAATTCCGGTCTCCC
DNA 2: TGGTGGCTACGACGGGATT
B5: GCGUUUA (DNA:RNA)
RNA: B4 RNA with A26C, U27G, G28U, A29U, C31A
DNA 1: CAATCTGAATTCCGGTCTCCC
DNA 2: TGGTGGCTACGACGGGATT
B6: GGCGUCA (DNA:RNA)
RNA: B1 RNA with C25G, U26G, A28G, G31A
DNA 1: CAATCTGAATTCCGGTCTCCC
DNA 2: TGGTGGCTACGACGGGATT
B7: AGCAUGU (DNA:RNA)
RNA: B1 RNA with C25A, U26G, C30G, G31U
DNA 1: CAATCTGAATTCCGGTCTCCC
DNA 2: TGGTGGCTACGACGGGATT
B8: GUAGCGG (DNA:RNA)
RNA: B1 RNA with C25G, C27A, A28G, U29C, C30G
DNA 1: CAATCTGAATTCCGGTCTCCC
DNA 2: TGGTGGCTACGACGGGATT
B9: CCUCGCA (DNA:RNA)
RNA: B1 RNA with U26C, C27U, A28C, U29G, G31A
DNA 1: CAATCTGAATTCCGGTCTCCC
DNA 2: TGGTGGCTACGACGGGATT
B10: UUCCUAC (DNA:RNA)
RNA: B1 RNA with C25U, A28C, C30A, G31C
DNA 1: CAATCTGAATTCCGGTCTCCC
DNA 2: TGGTGGCTACGACGGGATT
B11: ACCUGGA (DNA:RNA)
RNA: B1 RNA with C25A, U26C, A28U, U29G, C30G, G31A
DNA 1: CAATCTGAATTCCGGTCTCCC
DNA 2: TGGTGGCTACGACGGGATT
B12: UUGUUUU (DNA:RNA)
RNA: B1 RNA with C25U, C27G, A28U, C30U, G31U
DNA 1: CAATCTGAATTCCGGTCTCCC
DNA 2: TGGTGGCTACGACGGGATT
B13: CGAUAUA (DNA:RNA)
RNA: B4 RNA with G25C, A26G, U27A, G28U, C31A
DNA 1: CAATCTGAATTCCGGTCTCCC
DNA 2: TGGTGGCTACGACGGGATT
B14: UUCAAAA (DNA:RNA)
RNA: B1 RNA with C25U, U29A, C30A, G31A
DNA 1: CAATCTGAATTCCGGTCTCCC
DNA 2: TGGTGGCTACGACGGGATT
B15: AUCGGCC (DNA:RNA)
RNA: B1 RNA with C25A, A28G, U29G, G31C
DNA 1: CAATCTGAATTCCGGTCTCCC
DNA 2: TGGTGGCTACGACGGGATT
B16: UCGACUG (DNA:RNA)
RNA: B1 RNA with C25U, U26C, C27G, U29C, C30U
DNA 1: CAATCTGAATTCCGGTCTCCC
DNA 2: TGGTGGCTACGACGGGATT
B17: CUUCAUG (DNA:RNA)
RNA: B1 RNA with C27U, A28C, U29A, C30U
DNA 1: CAATCTGAATTCCGGTCTCCC
DNA 2: TGGTGGCTACGACGGGATT
B18: UAGAAAG (DNA:RNA)
RNA: B1 RNA with C25U, U26A, C27G, U29A, C30A
DNA 1: CAATCTGAATTCCGGTCTCCC
DNA 2: TGGTGGCTACGACGGGATT
B19: CGGGAGU (DNA:RNA)
RNA: B4 RNA with G25C, A26G, U27G, U30G, C31U
DNA 1: CAATCTGAATTCCGGTCTCCC
DNA 2: TGGTGGCTACGACGGGATT
B20: ACACGUG (DNA:RNA)
RNA: B1 RNA with C25A, U26C, C27A, A28C, U29G, C30U
DNA 1: CAATCTGAATTCCGGTCTCCC
DNA 2: TGGTGGCTACGACGGGATT
B21: UGCCGGC (DNA:RNA)
RNA: B1 RNA with C25U, U26G, A28C, U29G, C30G, G31C
DNA 1: CAATCTGAATTCCGGTCTCCC
DNA 2: TGGTGGCTACGACGGGATT
B22: UUCCUUC (DNA:RNA)
RNA: B1 RNA with C25U, A28C, C30U, G31C
DNA 1: CAATCTGAATTCCGGTCTCCC
DNA 2: TGGTGGCTACGACGGGATT
B23: CGUGACU (DNA:RNA)
RNA: B4 RNA with G25C, A26G, U30C, C31U
DNA 1: CAATCTGAATTCCGGTCTCCC
DNA 2: TGGTGGCTACGACGGGATT
B24: CUCCAAU (DNA:RNA)
RNA: B1 RNA with A28C, U29A, C30A, G31U
DNA 1: CAATCTGAATTCCGGTCTCCC
DNA 2: TGGTGGCTACGACGGGATT
B25: CGAGACC (DNA:RNA)
RNA: B4 RNA with G25C, A26G, U27A, U30C
DNA 1: CAATCTGAATTCCGGTCTCCC
DNA 2: TGGTGGCTACGACGGGATT
B26: UAGAUAU (DNA:RNA)
RNA: B1 RNA with C25U, U26A, C27G, C30A, G31U
DNA 1: CAATCTGAATTCCGGTCTCCC
DNA 2: TGGTGGCTACGACGGGATT
B27: CGGAAAC (DNA:RNA)
RNA: B1 RNA with U26G, C27G, U29A, C30A, G31C
DNA 1: CAATCTGAATTCCGGTCTCCC
DNA 2: TGGTGGCTACGACGGGATT
B28: GAUGGCG (DNA:RNA)
RNA: B4 RNA with A29G, U30C, C31G
DNA 1: CAATCTGAATTCCGGTCTCCC
DNA 2: TGGTGGCTACGACGGGATT
B29: AAACGAA (DNA:RNA)
RNA: B4 RNA with G25A, U27A, G28C, A29G, U30A, C31A
DNA 1: CAATCTGAATTCCGGTCTCCC
DNA 2: TGGTGGCTACGACGGGATT
B30: UCUGUGC (DNA:RNA)
RNA: B4 RNA with G25U, A26C, A29U, U30G
DNA 1: CAATCTGAATTCCGGTCTCCC
DNA 2: TGGTGGCTACGACGGGATT
B31: CGGCUGU (DNA:RNA)
RNA: B1 RNA with U26G, C27G, A28C, C30G, G31U
DNA 1: CAATCTGAATTCCGGTCTCCC
DNA 2: TGGTGGCTACGACGGGATT

The target in the assay is T1, RBFOX1 RRM RbFoxmut (Fox-RRM*) (Homo sapiens, UniProt Q9NWB1 109-208, R118D;E147R;N151S;E152T).
T1 sequence: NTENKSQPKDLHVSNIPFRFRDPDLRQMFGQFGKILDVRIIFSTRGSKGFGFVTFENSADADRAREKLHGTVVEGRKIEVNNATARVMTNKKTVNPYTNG
In words: EMSA; HiTS-Eq, 1 nM pool, 10 min; buffer printed only for the single-RNA assays: 10 mM Tris pH 7.5, 150 mM NaCl, 3.4 mM EDTA, 0.001% NP-40, 30 C. Conditions: tags: His6 N-terminal (pET28a); label: 5' 32P. In outline:
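A pool of RNA with 7 randomized nucleotides, 5′-radiolabelled and with DNA-annealed flanks, was equilibrated at 1 nM for 10 min in 50 µL with purified RbFox RRM, wild type or mutant, across increasing protein concentrations. Free RNA was separated by 8% native PAGE, excised, reverse-transcribed, barcoded by PCR and sequenced. Relative association constants were obtained from read-count changes of each RNA species versus the control reaction and normalised to the cognate motif.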
On the technique in general: Mobility shift assays separate free from complexed probe on a gel.
In the case of B1, the binding signal is 0.122 KA relative to UGCAUGU.

As to B2, the binding signal was 0.0954 KA relative to UGCAUGU.

As to B3, the binding signal is 0.0903 KA relative to UGCAUGU.

On to B4, for which the binding signal was 0.0682 KA relative to UGCAUGU. For B5 the value was 0.113 KA relative to UGCAUGU; for B6, 0.145 KA relative to UGCAUGU. For B7 the value was 0.713 KA relative to UGCAUGU; for B8, 0.0802 KA relative to UGCAUGU.

As to B9, the binding signal was 0.122 KA relative to UGCAUGU. To B10 belongs 0.0836 KA relative to UGCAUGU; to B11, 0.081 KA relative to UGCAUGU; to B12, 0.0758 KA relative to UGCAUGU.

Take B13: the binding signal is 0.104 KA relative to UGCAUGU. As for B14, the binding signal is 0.0808 KA relative to UGCAUGU. For B15 the value was 0.191 KA relative to UGCAUGU; for B16, 0.175 KA relative to UGCAUGU. On to B17, for which the binding signal is 0.12 KA relative to UGCAUGU.

Turning to B18, the binding signal is 0.0873 KA relative to UGCAUGU.

Consider B19, for which the binding signal is 0.112 KA relative to UGCAUGU. For B20 the value was 0.144 KA relative to UGCAUGU. To B21 belongs 0.0831 KA relative to UGCAUGU. For B22 the value was 0.0735 KA relative to UGCAUGU. In the case of B23, the binding signal was 0.0803 KA relative to UGCAUGU. For B24 the value was 0.0534 KA relative to UGCAUGU. To B25 belongs 0.0759 KA relative to UGCAUGU; to B26, 0.0548 KA relative to UGCAUGU. To B27 belongs 0.0792 KA relative to UGCAUGU. With B28, the binding signal is 0.13 KA relative to UGCAUGU. Regarding B29, the binding signal is 0.0677 KA relative to UGCAUGU.

Turning to B30, the binding signal is 0.166 KA relative to UGCAUGU. To B31 belongs 0.149 KA relative to UGCAUGU.
